# Test results as given in article PMC12136788.
# Positions count from the first letter of the chain named. The list shows a part of the results.
# T1: UNK ZnF1-3 (human, UniProt Q9C0B0 31-174)
# T1 sequence: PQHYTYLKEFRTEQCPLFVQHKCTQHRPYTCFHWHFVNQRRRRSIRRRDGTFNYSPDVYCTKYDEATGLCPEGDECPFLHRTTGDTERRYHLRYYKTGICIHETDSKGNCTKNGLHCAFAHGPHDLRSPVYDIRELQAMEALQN
# B1: chr7:90019433:90019434:+_ENSMUSG00000057706_ENSMUST00000082237|mus_hu|FALSE|FALSE (ssRNA)
# RNA: GGGAGUUCUACAGUCCGACGAUCAAAUAAUACAGUGUUCUUUGCCAUAAGGCCAUACUAAAAUAAAAAGAUUUAACCCAGCUACAAAAAAGUUCACUGAACUUAAAUUAAAAUACUUGUAAACAUCUUUGCAAUAUGAAAUAUCAACAGAGGAUUGAGCAUCA
# B2: chr16:45382771:45382772:-_ENSMUSG00000022661_ENSMUST00000163230|mus_mus|mus_mus_mus_hu_True|1_98 (ssRNA)
# RNA: GGGAGUUCUACAGUCCGACGAUCCUGGGUCAUGUUAUGGGCCCAAUGGACAGGGAGGGCAUGCUUCUCAAAAAAUGUGAGCUAUUGUCUAAGACUAACAAUAUUUAUCUAGCUAUAAAAAUAAGUUAAAUGAAUAAACAUUACCAACAGAGGAUUGAGCAUCA
# B3: chr16:94651144:94651145:+_ENSMUSG00000040785_ENSMUST00000117648|mus_hu|mus_mus_mus_hu_True|28_108 (ssRNA)
# RNA: GGGAGUUCUACAGUCCGACGAUCAUUCUCUUGGAUCAAGUGGCGAAUAACAUAGUCCACUGCUUCAUUUAGAAAAUUUCUGCUAGAAAAACAGGUUGUAUAGUCUUCCGUGCUCAGAACUUUCCAAGAAAGCAAUUCUUUGAGCAACAGAGGAUUGAGCAUCA
# B4: chr3:41265538:41265539:+_ENSG00000168036_ENST00000349496|hu_mus|FALSE|FALSE (ssRNA)
# RNA: GGGAGUUCUACAGUCCGACGAUCCAUGUCCAACUCCAUCAGGUCAGCUUGAGUAGCCAUUGUCCACGCAGCGGUGUCACAGCAGCUGUGCGCUGAGCUUCAGGUACCCUCAGGCCCGCGCGCUGCUCACUCGCGGCCGCCCGCCAACAGAGGAUUGAGCAUCA
# B5: chr14:102233281:102233282:+_ENSG00000078304_ENST00000556260|hu_hu|motif|central (ssRNA)
# RNA: GGGAGUUCUACAGUCCGACGAUCACUUCUAAAAAUGUAACAUUGGACACAGUACACACACUUAAAAGAAACAACACCCACCGGUGGUCUGAUCUUACAAAAUGGACUUGAGGAAACUCAGAGCAAUUUAUUAACAUUCUAAAUCAACAGAGGAUUGAGCAUCA
# B6: 51805483_51809604_565_3pUTR_ENSMUSG00000022314_ENSMUST00000022927|mouse|control|control (ssRNA)
# RNA: GGGAGUUCUACAGUCCGACGAUCAUAUCAUCUAAAUCUGGCAGUGGCUGAUCAAAAUCGUGGAAUUCCUCAGGUAAAGUAAUGGCAUUAUAAGCUGCUUCCCGAUUUUCCUCAGGUAGAUCGACAACACCUGGCCGAAACGCCCAACAGAGGAUUGAGCAUCA
# B7: chr12:12974248:12974249:+_ENSG00000213782_ENST00000358007|hu_hu|motif|central (ssRNA)
# RNA: GGGAGUUCUACAGUCCGACGAUCCAGGGCUUCAAACUGCUCUGAGAUCUGAAAGGCCAGCUCCCGAGUCGGGGUAAGAACGGGGGCAAACAAACGCUGCGGGGUCUCCAGCAGUGCGUUUAGAAUGGGCAAAGCAAAGGCGCCCAACAGAGGAUUGAGCAUCA
# B8: chr12:46205223:46205224:+_ENSG00000189079_ENST00000334344|hu_mus|FALSE|FALSE (ssRNA)
# RNA: GGGAGUUCUACAGUCCGACGAUCCUGUGGCUUUGGAUUGCCUGGUGGUACCUCAUCAUCAUCUUCCCCAAAAUGAUGAACUUUCUCGUACUUUUCUAGAUAACGCAAGUAAUACUGUUUUAAAGCAAAGGCAGCGUUGGAACACAACAGAGGAUUGAGCAUCA
# B9: chr17:74307696:74307697:-_ENSG00000161542_ENST00000324684|hu_mus|FALSE|FALSE (ssRNA)
# RNA: GGGAGUUCUACAGUCCGACGAUCGUUCCGGAAGAGGUAAGCCAUAGACUCUCCAUUGUGGAUUCUCCGAAUCGCCUCAGAAAGAAUCAGGCUGAUGUCCACAGUCUUUAUCUUGGGACACUGUAGUUUCUGAAGUUCAUGAGGCAACAGAGGAUUGAGCAUCA
# B10: chr10:24632488:24632489:+_ENSMUSG00000019984_ENSMUST00000092646|mus_mus|FALSE|FALSE (ssRNA)
# RNA: GGGAGUUCUACAGUCCGACGAUCAGGUGCUGGAGACCCGCUGUUGAGGGCCUGGGGUGGCACUGCCGGCUCCAUCUUGCUAAUGUGCGUGAUGAAUCGAAGACGAAGCUUUAAAGCCGGCUUUAAAUUACAGAUAAUCUUCUCCAACAGAGGAUUGAGCAUCA
# B11: chr9:44565267:44565268:-_ENSMUSG00000032096_ENSMUST00000034607|mus_hu|motif|central (ssRNA)
# RNA: GGGAGUUCUACAGUCCGACGAUCAUUAAUGGGUGGAGCAUGCAUUUUGGUUGCUUCAGAAGUACGCUUGCCCAUACGGGAGGACAUGAUGGUUUCACCUUCAGAUUUUAAUUUGUCCACAAAGUUAUCUACUUCCUUUCCUUUCAACAGAGGAUUGAGCAUCA
# B12: chr5:143665172:143665173:-_ENSMUSG00000029580_ENSMUST00000100497|perfect_dup|FALSE|FALSE (ssRNA)
# RNA: GGGAGUUCUACAGUCCGACGAUCUUUGGGAGGGUGAGGGACUUCCUGUAACCACUUAUUUCAUGGAUACUUGGAAUGACUAUUAAAAAAAGACAAAACCAAAAAAAAAAAAAAACAAAACAAUGUACAAAGUCCUCAGCCACACAACAGAGGAUUGAGCAUCA
# B13: chr11:64571133:64571134:-_ENSG00000133895_ENST00000312049|hu_hu|FALSE|FALSE (ssRNA)
# RNA: GGGAGUUCUACAGUCCGACGAUCCUGAAAAAUAAAUCUAUGUACAAAACAGGAAGAGAUCAGGCUCUUGUCACCCACUCCUAACCCUCUGCAGAUUUCCUCCGGGAUGCUCCGAGAUGGGCUGGACCUCUGGGAGGUUCCCAGCAACAGAGGAUUGAGCAUCA
# B14: chr2:42509997:42509998:+_ENSG00000143924_ENST00000318522|hu_mus|hu_hu_hu_mus_True|28_68 (ssRNA)
# RNA: GGGAGUUCUACAGUCCGACGAUCUCGCUGAGUCCUCUCCUCAUAAUUAAACAGGACUACCACUGAGGCAAUGAAAUAAACUAUCUCCCCUGUGGGAAGCAGGUAUACAUUAGCUCUACAGUCCUUUCCUCGAUAACCGUAUACCAACAGAGGAUUGAGCAUCA
# B15: chr1:36752661:36752662:+_ENSG00000054118_ENST00000354618|hu_hu|FALSE|FALSE (ssRNA)
# RNA: GGGAGUUCUACAGUCCGACGAUCCCCAGACUGAUACCCGGCACCACUCGGCAGAGUUGAGCCCAUCUGGGAUGUGCUGGAAAGUGGAGGACUAGGUUUUGGCACGGGGCUAGGACGGGGUGACCGCCGCCUCACCACCACAGACAACAGAGGAUUGAGCAUCA
# B16: chrX:67713009:67713010:-_ENSMUSG00000073139_ENSMUST00000101506|mus_hu|FALSE|FALSE (ssRNA)
# RNA: GGGAGUUCUACAGUCCGACGAUCUAAGGAGAGCAAAAAUAGUGGCUUUAGCUACAUUUUUUACACACUGAGCAGGAAAGUCUAAACCAUCCCGUUCCCCUGUACCCCAAAGAGAACAGGGCUUGCUGGAGGCCAGUGCCAAGGCAACAGAGGAUUGAGCAUCA
# B17: 167381320_167381440_1809_CDS_ENSG00000143190_ENST00000367866|human|control|control (ssRNA)
# RNA: GGGAGUUCUACAGUCCGACGAUCAAGGGCAGCAGCUGCUGCUGUUUGCAAACCUGAUGCUGUCACCAUCACCUGGCUGGUCCCAAGAGGGGAGGACAAAGGAGUGGAGGUGGUCUGUGUUGUGCUGGUCUCACUGGCACUGGACAACAGAGGAUUGAGCAUCA
# B18: chr5:145543945:145543946:-_ENSG00000133706_ENST00000545646|hu_hu|motif|central (ssRNA)
# RNA: GGGAGUUCUACAGUCCGACGAUCCUGAAUAGCCAGUGGCGGGAAAUAAUCAAGCCAAUGUUCUGCUUCAGAAAAUUUUACGGUCUCUUCAUCAGACAGGCCAAGGGAUUUCAUAAUGCCCCACUGGUAUUUAGAAGAUCCAGCCAACAGAGGAUUGAGCAUCA
# B19: chr2:42509997:42509998:+_ENSG00000143924_ENST00000318522|hu_mus|hu_hu_hu_mus_True|28_88 (ssRNA)
# RNA: B14 RNA with C51U, G54U, A69G, G72A
# B20: chr3:145257603:145257604:+_ENSMUSG00000074182_ENSMUST00000098534|mus_hu|FALSE|FALSE (ssRNA)
# RNA: GGGAGUUCUACAGUCCGACGAUCAUCAAUGUAAGGUUUUAGGAUUUCAUUAAUAGUUUUAUCAUCUGGUACUCUUUUUUCUAUGUACUCAGCUUGACUUUGAGGAAACUGGAGCUUCACAUGCCAACAAAACUGUUGUUUUUUCAACAGAGGAUUGAGCAUCA
# B21: 30520229_30521091_787_CDS_ENSG00000126858_ENST00000394692|human|control|control (ssRNA)
# RNA: GGGAGUUCUACAGUCCGACGAUCAUCAUCAUAACCAAAUCGUCGAAGCACAGUCCAAGUAGUUUCGUGUCUCCCUCUCUGGAUAAAAAGUGUGUGUAAAAAGAGAAAACCUUUCAGGGUCAACCCACUGUCAGCCACACCAUCCAACAGAGGAUUGAGCAUCA
# B22: chr11:118639009:118639010:-_ENSG00000110367_ENST00000264018|hu_mus|motif|central (ssRNA)
# RNA: GGGAGUUCUACAGUCCGACGAUCUUCAAGUAAGGGGAUGAGGUAGGCACCGCUUUUGCCUGUUCCAUUUUUUGCUCGGGCGGAGAUAUCCCUACCAGAUAAAGCAAUGGGAAUGCUCUCCUCCUGGAUAGGAGAUGGUUUUUCCAACAGAGGAUUGAGCAUCA
# Target: T1, UNK ZnF1-3
# Test: nsRBNS (natural sequence RNA bind-n-seq); RBNS binding buffer (assumed for nsRBNS): 25 mM Tris pH 7.5, 150 mM KCl, 3 mM MgCl2, 0.01% Triton X-100, 500 ug/ml BSA, 20 U/ml SUPERase-In, 4 C; UNK is unkempt and MSI1 is Musashi-1; names of the RNAs are library labels; protein concentration not given here; high values mean tight binding
row,Binder,binding signal [enrichment R]
1,B1,2.09
2,B2,0.926
3,B3,0.694
4,B4,0.504
5,B5,2.05
6,B6,1.33
7,B7,1.62
8,B8,0.95
9,B9,0.658
10,B10,1.06
11,B11,0.592
12,B12,1.15
13,B13,1.21
14,B14,0.926
15,B15,1.73
16,B16,0.836
17,B17,1.02
18,B18,1.49
19,B19,1.65
20,B20,0.503
21,B21,2.1
22,B22,0.798
